# Results as given in article PMC6919601, “Identification of Plasmodium dipeptidyl aminopeptidase allosteric inhibitors by high throughput screening” (PLoS ONE, 2019).
# In all, about 110,000 compounds went through this assay and about 230 (0.21%) showed an effect of 50% or more. The list shows a part of the results.
# Target: DPAP1 (Plasmodium falciparum, UniProt Q8IIJ9)
# Assay: primary screen, percent inhibition; read by cleavage of a fluorogenic dipeptide substrate; higher = more effect of the substance
# Design: species or system P. falciparum D10 trophozoite lysates; single well
# 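Note: 30 min substrate incubation versus DMSO and 10 µM JCP410 controls.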
# DPAP1, sequence (Q8IIJ9 whole entry, looked up): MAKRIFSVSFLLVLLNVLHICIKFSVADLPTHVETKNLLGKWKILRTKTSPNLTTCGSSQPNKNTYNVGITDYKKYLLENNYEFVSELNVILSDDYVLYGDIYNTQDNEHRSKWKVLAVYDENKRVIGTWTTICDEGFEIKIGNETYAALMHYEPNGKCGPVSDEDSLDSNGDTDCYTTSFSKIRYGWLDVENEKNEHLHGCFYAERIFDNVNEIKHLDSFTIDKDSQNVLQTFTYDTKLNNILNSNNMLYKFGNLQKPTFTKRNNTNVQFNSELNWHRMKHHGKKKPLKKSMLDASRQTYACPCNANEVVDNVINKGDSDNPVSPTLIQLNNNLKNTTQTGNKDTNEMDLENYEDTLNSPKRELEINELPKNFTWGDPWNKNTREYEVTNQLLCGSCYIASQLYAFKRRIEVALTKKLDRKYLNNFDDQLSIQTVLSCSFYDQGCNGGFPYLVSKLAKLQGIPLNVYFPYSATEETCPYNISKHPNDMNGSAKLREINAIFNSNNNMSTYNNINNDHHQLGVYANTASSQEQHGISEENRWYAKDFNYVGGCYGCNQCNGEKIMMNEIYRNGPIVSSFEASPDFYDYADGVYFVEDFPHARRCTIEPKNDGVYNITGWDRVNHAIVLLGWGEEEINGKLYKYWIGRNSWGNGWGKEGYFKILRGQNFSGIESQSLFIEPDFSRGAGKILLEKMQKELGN
row,SMILES,% Inhibition @ 10 uM [%]
1,CCC(Oc1ccccc1)C(=O)NCc1ccc(C)cc1 (stereo not drawn),-4.14
2,Clc1cccc(-c2nnc3sc(C4COc5ccccc5O4)nn23)c1 (stereo not drawn),4.47
3,CCOc1cc(/C=C2\SC(=N)N(c3nccs3)C2=O)ccc1OCC(N)=O,-1.02
4,CCOC(=O)N1CCN(C(=O)c2ccc(CNS(=O)(=O)c3ccc(OC)cc3)cc2)CC1,-7.16
5,Cc1c(C(=O)NC(C)c2ccccc2)sc2nc3n(c(=O)c12)CCCCC3 (stereo not drawn),-1.38
6,COc1ccc(Cc2nnc(NC(=O)C(C)(C)Oc3ccc(Cl)cc3)s2)cc1,2.25
7,O=C(CN1C(=O)c2cccc3cccc1c23)NCCC1=CCCCC1,-3.49
8,Cc1nn2c(=O)cc(COc3ccc(/C=C(\C#N)C(N)=O)cc3)nc2s1,-2.19
9,CCN(CC)C(=O)C1CCCN(Cc2ccc(F)cc2)C1 (stereo not drawn),-1.92
10,Cc1cccc(N(CC(=O)N2CCN(c3ccccc3)CC2)S(=O)(=O)c2ccccc2)c1C,2.44
11,COc1ccc(S(=O)(=O)Nc2ccccc2C(=O)NC(C)c2ccccc2)cc1OC (stereo not drawn),4.57
12,Cc1nc2sccn2c(=O)c1S(=O)(=O)N1CCN(Cc2ccccc2)CC1,-0.538
13,CCN(CC)C(=O)COc1ccc2oc(C)c(C(=O)OC)c2c1,0.487
14,CSC1=NSC2=NC(=O)/C(=C\c3ccc(OS(C)(=O)=O)cc3)C(=N)N12,-1.58
15,O=C(c1ccco1)N(Cc1cccc(Cl)c1)C1CCS(=O)(=O)C1 (stereo not drawn),-0.469
16,CCOc1ccccc1/C=C/C(=O)NCC(=O)N1CCC(N(C)C2CCCCCC2)CC1,0.689
17,COc1ccc(-c2nnn(Cn3nnc4c(O)nc(Cc5ccc(F)cc5)nc43)n2)cc1OC,-1.47
18,COc1ccc(Nc2nc(N3CCNCC3)nc(C)c2[N+](=O)[O-])cc1,1.04
19,Nc1c(C(=O)O)cnn1-c1ccccc1,0.266
20,COc1ccc(C(=O)NCCCN2CCOCC2)cc1,0.266
21,O=C(CSc1nc(O)cc(-c2ccccc2)n1)NC1CCCCC1,3.72
22,CCN(CC)C(=O)Cn1cc(S(=O)(=O)Cc2ccc(F)cc2)c2ccccc21,1.35
23,Cc1c(C2(c3c(C)n(C)n(-c4ccccc4)c3=O)C(=O)N(C)c3ccc(Br)cc32)c(=O)n(-c2ccccc2)n1C,5.29
24,CN(C)CCN(C(=O)c1ccc2ncsc2c1)c1nc2ccc(Br)cc2s1,-6.76
25,COc1ccc(C=C2C(=O)OC(c3ccccc3)OC2=O)c(OC)c1OC (stereo not drawn),-1.92
26,Cc1ccc2c(CNCCc3ccc(Cl)cc3)c(C(=O)O)[nH]c2c1,0.16

row,SMILES,% Inhibition @ 10 uM [%]
1,O=C1c2ccccc2C(=O)C1(c1ccccc1)N1CCOCC1,-0.664
2,CC(=O)c1ccc2c(c1O)C=CC(C)(C)O2,5.09
3,CCCNC(=O)c1cc(-c2cccc(Cl)c2)on1,-10
4,COc1cc(C=C2C(=O)N(C)C(=O)N(C)C2=O)ccc1OCCOc1ccccc1,6.12
5,COC(=O)C1=C(C)NC(=O)CC1c1cc(OC)c(OC)cc1Br (stereo not drawn),13.2
6,Cc1cccc2c(C(=O)N3CCCCC3)cc(-c3ccccc3)nc12,-0.615
7,Cc1ccsc1C(=O)NC12CC3CC(CC(C3)C1)C2,-1.65
8,CCc1c(O)nc(SC(C)CC)n(-c2ccccc2)c1=O (stereo not drawn),0.135
9,CCOC(=O)N1CCC(NC(=O)c2ccc(CS(=O)c3cccc(C)c3)o2)CC1 (stereo not drawn),2.83
10,COCCNc1cnn(C23CC4CC(CC(C4)C2)C3)c(=O)c1Cl,1.72
11,CC1CCC(Nc2c(-c3cccs3)[nH]c3c(C#N)cnn23)CC1 (stereo not drawn),2.25
12,CCOC(=O)c1cc2c(nc1C)-c1ccccc1/C2=N\C1CCCCC1,6.5
13,COc1cccc(OCC(O)Cn2cnc3cc(C)c(C)cc32)c1 (stereo not drawn),-15.2
14,N#C/C(=C/c1cccs1)S(=O)(=O)c1ccccc1,4.65
15,CCC(Sc1nc2c(sc3ccccc32)c(=O)n1CCCOC)C(=O)N1CCOCC1 (stereo not drawn),0.4
16,COc1ccc(-c2nc(-c3cc4cc(C)ccc4nc3O)no2)cc1OC,-5.38
17,Cc1cc(C)cc(OCC(=O)Nc2ncc(C)s2)c1,11.5
18,c1ccc(-c2nc(NC3CCCCC3)c3ccccc3n2)cc1,-3.21
19,Cc1ccc(-n2c(=O)[nH]c3ccccc3c2=O)cc1,1.88
20,COc1cc(C)c(CNc2cc(C)ccc2OC)cc1C,-9.1
21,CCN(CC)S(=O)(=O)c1ccc(Br)c(C(=O)O)c1,-5.94
22,CCc1cc(=O)oc2c3c(ccc12)OCN(Cc1ccccc1Cl)C3,-2.48
23,COc1cc(C(=O)NC(C)c2ccc(O)cc2)nc2ccccc12 (stereo not drawn),-2.19
24,CC(C)CNC(=O)c1ccc(Cn2cc(Br)cn2)o1,3.8
25,Cc1ccc2c(c1)cc1c(=O)n(CC(=O)NCc3ccccc3)nc(C)n12,-9.45
